Laboratory results as given in PMC10162974.
No constants are given. Whether binding was seen depends on the method and setting. Binding seen in cells or lysates may run through a third protein. Some binding calls cover weakened binding; strength is not graded here. For some assays here: Tags and fused reporters may be left off the sequences shown. Values belong to the molecule of their own block, whether it stands above or below them.

Protein sequences, listed by entry. Tags and fused reporters are not part of them. Lines headed by an entry give the natural chain unless they say otherwise; changes in a name come on top.
UniProt Q00765: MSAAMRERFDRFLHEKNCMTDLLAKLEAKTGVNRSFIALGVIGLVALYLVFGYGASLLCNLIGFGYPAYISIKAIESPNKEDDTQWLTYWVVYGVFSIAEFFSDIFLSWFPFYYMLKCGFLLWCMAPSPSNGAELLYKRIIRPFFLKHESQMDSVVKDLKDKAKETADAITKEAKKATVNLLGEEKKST

Columns and labels:
[1] = biological target: REEP5-HA L61F/G119V (human) (UniProt Q00765); assay: cross-linking; EGS cross-linking of yeast membrane pellet in HKM buffer (25 mM Hepes pH 7.8, 150 mM KCl, 2.5 mM MgCl2), 30 min, room temperature; 4-20% SDS-PAGE, anti-HA blot
[2] = biological target: Yop1p-HA F68C (S. cerevisiae) (UniProt Q12402); assay: cross-linking; disulfide cross-linking of single-Cys Yop1p-HA in yeast microsomal membrane fractions, 1 mM copper-o-phenanthroline (Cu:Phe), 30 min, room temperature; 100 mM DTT as reduced control; non-reducing SDS-PAGE, anti-HA blot
[3] = biological target: Yop1p-HA V123C (S. cerevisiae) (UniProt Q12402); assay: as above
[4] = biological target: Yop1p-HA S157C (S. cerevisiae) (UniProt Q12402); assay: cross-linking; disulfide cross-linking of single-Cys Yop1p-HA (cytosolic regions) in yeast microsomal membrane fractions, oxidation by 2 mM diamide, 30 min, room temperature; anti-HA blot
[5] = biological target: Yop1p-HA W94C (S. cerevisiae) (UniProt Q12402); assay: cross-linking; disulfide cross-linking of single-Cys Yop1p-HA in yeast microsomal membrane fractions, 1 mM copper-o-phenanthroline (Cu:Phe), 30 min, room temperature; 100 mM DTT as reduced control; non-reducing SDS-PAGE, anti-HA blot
[6] = biological target: Yop1p-HA F116C/V123C (S. cerevisiae) (UniProt Q12402); assay: cross-linking; disulfide cross-linking of Cys mutants of Yop1p-HA (F116C, W118C, double mutants) upon oxidation; oxidant not named for these panels
[7] = biological target: Yop1p-HA D87C (S. cerevisiae) (UniProt Q12402); assay: cross-linking; disulfide cross-linking of single-Cys Yop1p-HA (cytosolic regions) in yeast microsomal membrane fractions, oxidation by 2 mM diamide, 30 min, room temperature; anti-HA blot
[8] = biological target: Yop1p-HA L43C (S. cerevisiae) (UniProt Q12402); assay: cross-linking; disulfide cross-linking of single-Cys Yop1p-HA in yeast microsomal membrane fractions, 1 mM copper-o-phenanthroline (Cu:Phe), 30 min, room temperature; 100 mM DTT as reduced control; non-reducing SDS-PAGE, anti-HA blot
[9] = biological target: Yop1p-HA F65C/V123C (S. cerevisiae) (UniProt Q12402); assay: cross-linking; disulfide cross-linking of Cys mutants of Yop1p-HA (F116C, W118C, double mutants) upon oxidation; oxidant not named for these panels
[10] = biological target: Yop1p-HA F45C (S. cerevisiae) (UniProt Q12402); assay: cross-linking; disulfide cross-linking of single-Cys Yop1p-HA in yeast microsomal membrane fractions, 1 mM copper-o-phenanthroline (Cu:Phe), 30 min, room temperature; 100 mM DTT as reduced control; non-reducing SDS-PAGE, anti-HA blot
[11] = biological target: Yop1p-HA F65C/F68C (S. cerevisiae) (UniProt Q12402); assay: cross-linking; disulfide cross-linking of Cys mutants of Yop1p-HA (F116C, W118C, double mutants) upon oxidation; oxidant not named for these panels
[12] = biological target: Yop1p-HA F124C (S. cerevisiae) (UniProt Q12402); assay: cross-linking; disulfide cross-linking of single-Cys Yop1p-HA in yeast microsomal membrane fractions, 1 mM copper-o-phenanthroline (Cu:Phe), 30 min, room temperature; 100 mM DTT as reduced control; non-reducing SDS-PAGE, anti-HA blot
[13] = biological target: Yop1p-HA F116C (S. cerevisiae) (UniProt Q12402); assay: cross-linking; disulfide cross-linking of Cys mutants of Yop1p-HA (F116C, W118C, double mutants) upon oxidation; oxidant not named for these panels
[14] = biological target: Yop1p-HA F65C (S. cerevisiae) (UniProt Q12402); assay: cross-linking; disulfide cross-linking of single-Cys Yop1p-HA in yeast microsomal membrane fractions, 1 mM copper-o-phenanthroline (Cu:Phe), 30 min, room temperature; 100 mM DTT as reduced control; non-reducing SDS-PAGE, anti-HA blot
[15] = biological target: Yop1p-HA V123C/S178C (S. cerevisiae) (UniProt Q12402); assay: cross-linking; disulfide cross-linking of Cys mutants of Yop1p-HA (F116C, W118C, double mutants) upon oxidation; oxidant not named for these panels
[16] = biological target: Yop1p-HA S178C (S. cerevisiae) (UniProt Q12402); assay: cross-linking; disulfide cross-linking of single-Cys Yop1p-HA (cytosolic regions) in yeast microsomal membrane fractions, oxidation by 2 mM diamide, 30 min, room temperature; anti-HA blot
[17] = biological target: Yop1p-HA F65C/S178C (S. cerevisiae) (UniProt Q12402); assay: cross-linking; disulfide cross-linking of Cys mutants of Yop1p-HA (F116C, W118C, double mutants) upon oxidation; oxidant not named for these panels

binding [1]: binds
Molecule: REEP5-HA L61F/G119V (from UniProt Q00765 1-189)

binding [2]: binds
B1: Yop1p-HA F68C (protein, UniProt Q12402 1-180)
chain: MSEYASSIHSQMKQFDTKYSGNRILQQLENKTNLPKSYLVAGLGFAYLLLIFINVGGVGEILSNFAGCVLPAYLSLVALKTPTSTDDTQLLTYWIVFSFLSVIEFWSKAILYLIPFYWFLKTVFLIYIALPQTGGARMIYQKIVAPLTDRYILRDVSKTEKDEIRASVNEASKATGASVH

binding [3]: binds
B2: Yop1p-HA V123C (protein, UniProt Q12402 1-180)
chain: MSEYASSIHSQMKQFDTKYSGNRILQQLENKTNLPKSYLVAGLGFAYLLLIFINVGGVGEILSNFAGFVLPAYLSLVALKTPTSTDDTQLLTYWIVFSFLSVIEFWSKAILYLIPFYWFLKTCFLIYIALPQTGGARMIYQKIVAPLTDRYILRDVSKTEKDEIRASVNEASKATGASVH

binding [4]: binds
B3: Yop1p-HA S157C (protein, UniProt Q12402 1-180)
chain: MSEYASSIHSQMKQFDTKYSGNRILQQLENKTNLPKSYLVAGLGFAYLLLIFINVGGVGEILSNFAGFVLPAYLSLVALKTPTSTDDTQLLTYWIVFSFLSVIEFWSKAILYLIPFYWFLKTVFLIYIALPQTGGARMIYQKIVAPLTDRYILRDVCKTEKDEIRASVNEASKATGASVH

binding [5]: binds
B4: Yop1p-HA W94C (protein, UniProt Q12402 1-180)
chain: MSEYASSIHSQMKQFDTKYSGNRILQQLENKTNLPKSYLVAGLGFAYLLLIFINVGGVGEILSNFAGFVLPAYLSLVALKTPTSTDDTQLLTYCIVFSFLSVIEFWSKAILYLIPFYWFLKTVFLIYIALPQTGGARMIYQKIVAPLTDRYILRDVSKTEKDEIRASVNEASKATGASVH

binding [6]: binds
B5: Yop1p-HA F116C/V123C (protein, UniProt Q12402 1-180)
chain: MSEYASSIHSQMKQFDTKYSGNRILQQLENKTNLPKSYLVAGLGFAYLLLIFINVGGVGEILSNFAGFVLPAYLSLVALKTPTSTDDTQLLTYWIVFSFLSVIEFWSKAILYLIPCYWFLKTCFLIYIALPQTGGARMIYQKIVAPLTDRYILRDVSKTEKDEIRASVNEASKATGASVH

binding [7]: binds
B6: Yop1p-HA D87C (protein, UniProt Q12402 1-180)
chain: MSEYASSIHSQMKQFDTKYSGNRILQQLENKTNLPKSYLVAGLGFAYLLLIFINVGGVGEILSNFAGFVLPAYLSLVALKTPTSTDCTQLLTYWIVFSFLSVIEFWSKAILYLIPFYWFLKTVFLIYIALPQTGGARMIYQKIVAPLTDRYILRDVSKTEKDEIRASVNEASKATGASVH

binding [8]: binds
B7: Yop1p-HA L43C (protein, UniProt Q12402 1-180)
chain: MSEYASSIHSQMKQFDTKYSGNRILQQLENKTNLPKSYLVAGCGFAYLLLIFINVGGVGEILSNFAGFVLPAYLSLVALKTPTSTDDTQLLTYWIVFSFLSVIEFWSKAILYLIPFYWFLKTVFLIYIALPQTGGARMIYQKIVAPLTDRYILRDVSKTEKDEIRASVNEASKATGASVH

binding [9]: binds
B8: Yop1p-HA F65C/V123C (protein, UniProt Q12402 1-180)
chain: MSEYASSIHSQMKQFDTKYSGNRILQQLENKTNLPKSYLVAGLGFAYLLLIFINVGGVGEILSNCAGFVLPAYLSLVALKTPTSTDDTQLLTYWIVFSFLSVIEFWSKAILYLIPFYWFLKTCFLIYIALPQTGGARMIYQKIVAPLTDRYILRDVSKTEKDEIRASVNEASKATGASVH

binding [10]: binds
B9: Yop1p-HA F45C (protein, UniProt Q12402 1-180)
chain: MSEYASSIHSQMKQFDTKYSGNRILQQLENKTNLPKSYLVAGLGCAYLLLIFINVGGVGEILSNFAGFVLPAYLSLVALKTPTSTDDTQLLTYWIVFSFLSVIEFWSKAILYLIPFYWFLKTVFLIYIALPQTGGARMIYQKIVAPLTDRYILRDVSKTEKDEIRASVNEASKATGASVH

binding [11]: binds
B10: Yop1p-HA F65C/F68C (protein, UniProt Q12402 1-180)
chain: MSEYASSIHSQMKQFDTKYSGNRILQQLENKTNLPKSYLVAGLGFAYLLLIFINVGGVGEILSNCAGCVLPAYLSLVALKTPTSTDDTQLLTYWIVFSFLSVIEFWSKAILYLIPFYWFLKTVFLIYIALPQTGGARMIYQKIVAPLTDRYILRDVSKTEKDEIRASVNEASKATGASVH

binding [12]: binds
B11: Yop1p-HA F124C (protein, UniProt Q12402 1-180)
chain: MSEYASSIHSQMKQFDTKYSGNRILQQLENKTNLPKSYLVAGLGFAYLLLIFINVGGVGEILSNFAGFVLPAYLSLVALKTPTSTDDTQLLTYWIVFSFLSVIEFWSKAILYLIPFYWFLKTVCLIYIALPQTGGARMIYQKIVAPLTDRYILRDVSKTEKDEIRASVNEASKATGASVH

binding [13]: binds
B12: Yop1p-HA F116C (protein, UniProt Q12402 1-180)
chain: MSEYASSIHSQMKQFDTKYSGNRILQQLENKTNLPKSYLVAGLGFAYLLLIFINVGGVGEILSNFAGFVLPAYLSLVALKTPTSTDDTQLLTYWIVFSFLSVIEFWSKAILYLIPCYWFLKTVFLIYIALPQTGGARMIYQKIVAPLTDRYILRDVSKTEKDEIRASVNEASKATGASVH

binding [14]: binds
B13: Yop1p-HA F65C (protein, UniProt Q12402 1-180)
chain: MSEYASSIHSQMKQFDTKYSGNRILQQLENKTNLPKSYLVAGLGFAYLLLIFINVGGVGEILSNCAGFVLPAYLSLVALKTPTSTDDTQLLTYWIVFSFLSVIEFWSKAILYLIPFYWFLKTVFLIYIALPQTGGARMIYQKIVAPLTDRYILRDVSKTEKDEIRASVNEASKATGASVH

binding [15]: binds
B14: Yop1p-HA V123C/S178C (protein, UniProt Q12402 1-180)
chain: MSEYASSIHSQMKQFDTKYSGNRILQQLENKTNLPKSYLVAGLGFAYLLLIFINVGGVGEILSNFAGFVLPAYLSLVALKTPTSTDDTQLLTYWIVFSFLSVIEFWSKAILYLIPFYWFLKTCFLIYIALPQTGGARMIYQKIVAPLTDRYILRDVSKTEKDEIRASVNEASKATGACVH

binding [16]: binds
B15: Yop1p-HA S178C (protein, UniProt Q12402 1-180)
chain: MSEYASSIHSQMKQFDTKYSGNRILQQLENKTNLPKSYLVAGLGFAYLLLIFINVGGVGEILSNFAGFVLPAYLSLVALKTPTSTDDTQLLTYWIVFSFLSVIEFWSKAILYLIPFYWFLKTVFLIYIALPQTGGARMIYQKIVAPLTDRYILRDVSKTEKDEIRASVNEASKATGACVH

binding [17]: binds
B16: Yop1p-HA F65C/S178C (protein, UniProt Q12402 1-180)
chain: MSEYASSIHSQMKQFDTKYSGNRILQQLENKTNLPKSYLVAGLGFAYLLLIFINVGGVGEILSNCAGFVLPAYLSLVALKTPTSTDDTQLLTYWIVFSFLSVIEFWSKAILYLIPFYWFLKTVFLIYIALPQTGGARMIYQKIVAPLTDRYILRDVSKTEKDEIRASVNEASKATGACVH
